Assay results reported in the supplement of paper PMC8728848.
Some of the results follow.

Legend:
Assay in all cases: glycan array binding signal (z-score within array); higher = stronger binding
Conditions in all cases: glycan notation: IUPAC condensed, linker removed
[1] = biological target: Fuc(a1-3)[Gal(b1-4)]GlcNAc(b1-4)Gal(b1-4)[Fuc(a1-3)]GlcNAc
Summary of the method: (§1)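 Negative Z-scores can be read as non-binding. The Z-score is calculated within each array and then averaged across arrays of one protein sequence at different concentrations or buffers and across linkers. Arrays, 3228 in all, were curated from the Consortium for Functional Glycomics database and kept only where the protein sequence was available.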

[2] = biological target: Fuc(a1-3)[Gal(b1-4)]GlcNAc(b1-4)Gal(b1-4)[Fuc(a1-3)]GlcNAc(b1-4)Gal(b1-4)[Fuc(a1-3)]GlcNAc
Summary of the method: as §1

[3] = biological target: Fuc(a1-3)[Gal(b1-4)]GlcNAc(b1-6)GalNAc
Summary of the method: as §1

[4] = biological target: Fuc(a1-3)[Gal(b1-4)]GlcNAc(b1-6)[Gal(b1-3)GlcNAc(b1-3)]Gal(b1-4)Glc
Summary of the method: as §1

[5] = biological target: Fuc(a1-3)[Gal(b1-4)]GlcNAc(b1-6)[Neu5Ac(a2-3)Gal(b1-3)]GalNAc
Summary of the method: as §1

[6] = biological target: Fuc(a1-3)[Gal(b1-4)]GlcNAc6S
Summary of the method: as §1

[7] = biological target: Fuc(a1-3)[Gal3S(b1-4)]GlcNAc
Summary of the method: as §1

[8] = biological target: Fuc(a1-3)[Gal3S(b1-4)]GlcNAc6S
Summary of the method: as §1

[9] = biological target: Fuc(a1-3)[GalNAc(b1-4)]GlcNAc
Summary of the method: as §1

[10] = biological target: Fuc(a1-3)[GalNAc(b1-4)]GlcNAc6S
Summary of the method: as §1

[11] = biological target: Fuc(a1-3)[GalNAc3S(b1-4)]GlcNAc
Summary of the method: as §1

Fuc(a1-4)GlcNAc = biological target: Fuc(a1-4)GlcNAc
Summary of the method: as §1

Fuc(b1-3)GlcNAc = biological target: Fuc(b1-3)GlcNAc
Summary of the method: as §1

Gal(a1-2)Gal = biological target: Gal(a1-2)Gal
Summary of the method: as §1

Gal(a1-3)Gal = biological target: Gal(a1-3)Gal
Summary of the method: as §1

Gal(a1-3)Gal(b1-3)GlcNAc = biological target: Gal(a1-3)Gal(b1-3)GlcNAc
Summary of the method: as §1

[12] = biological target: Gal(a1-3)Gal(b1-3)GlcNAc(b1-2)Man(a1-3)[Gal(a1-3)Gal(b1-3)GlcNAc(b1-2)Man(a1-6)]Man(b1-4)GlcNAc(b1-4)GlcNAc
Summary of the method: as §1

[13] = biological target: Gal(a1-3)Gal(b1-3)GlcNAc(b1-3)GalNAc
Summary of the method: as §1

[14] = biological target: Gal(a1-3)Gal(b1-3)GlcNAc(b1-6)GalNAc
Summary of the method: as §1

[15] = biological target: Gal(a1-3)Gal(b1-3)[Fuc(a1-4)]GlcNAc(b1-2)Man(a1-3)[Gal(a1-3)Gal(b1-3)[Fuc(a1-4)]GlcNAc(b1-2)Man(a1-6)]Man(b1-4)GlcNAc(b1-4)GlcNAc
Summary of the method: as §1

Gal(a1-3)Gal(b1-4)Glc = biological target: Gal(a1-3)Gal(b1-4)Glc
Summary of the method: as §1

Gal(a1-3)Gal(b1-4)GlcNAc = biological target: Gal(a1-3)Gal(b1-4)GlcNAc
Summary of the method: as §1

[16] = biological target: Gal(a1-3)Gal(b1-4)GlcNAc(b1-3)GalNAc
Summary of the method: as §1

[17] = biological target: Gal(a1-3)Gal(b1-4)GlcNAc(b1-6)GalNAc
Summary of the method: as §1

[18] = biological target: Gal(a1-3)Gal(b1-4)[Fuc(a1-3)]GlcNAc
Summary of the method: as §1

[19] = biological target: Gal(a1-3)Gal(b1-4)[Fuc(a1-3)]GlcNAc(b1-2)Man(a1-3)[Gal(a1-3)Gal(b1-4)[Fuc(a1-3)]GlcNAc(b1-2)Man(a1-6)]Man(b1-4)GlcNAc(b1-4)GlcNAc
Summary of the method: as §1

Gal(a1-3)GalNAc = biological target: Gal(a1-3)GalNAc
Summary of the method: as §1

[20] = biological target: Gal(a1-3)[Gal(a1-4)]Gal(b1-4)GlcNAc
Summary of the method: as §1

[21] = biological target: Gal(a1-4)Gal(b1-3)GlcNAc(b1-2)Man(a1-3)[Gal(a1-4)Gal(b1-3)GlcNAc(b1-2)Man(a1-6)]Man(b1-4)GlcNAc(b1-4)GlcNAc
Summary of the method: as §1

Gal(a1-4)Gal(b1-4)Glc = biological target: Gal(a1-4)Gal(b1-4)Glc
Summary of the method: as §1

Gal(a1-4)Gal(b1-4)GlcNAc = biological target: Gal(a1-4)Gal(b1-4)GlcNAc
Summary of the method: as §1

[22] = biological target: Gal(a1-4)Gal(b1-4)GlcNAc(b1-2)Man(a1-3)[Gal(a1-4)Gal(b1-4)GlcNAc(b1-2)Man(a1-6)]Man(b1-4)GlcNAc(b1-4)GlcNAc
Summary of the method: as §1

[23] = biological target: Gal(a1-4)Gal(b1-4)GlcNAc(b1-3)Gal(b1-4)Glc
Summary of the method: as §1

Gal(a1-4)GlcNAc = biological target: Gal(a1-4)GlcNAc
Summary of the method: as §1

Gal(a1-6)Glc = biological target: Gal(a1-6)Glc
Summary of the method: as §1

Gal(b1-2)Gal = biological target: Gal(b1-2)Gal
Summary of the method: as §1

Gal(b1-3)Gal = biological target: Gal(b1-3)Gal
Summary of the method: as §1

Gal(b1-3)Gal(b1-4)GlcNAc = biological target: Gal(b1-3)Gal(b1-4)GlcNAc
Summary of the method: as §1

[24] = biological target: Gal(b1-3)Gal(b1-4)GlcNAc(b1-2)Man(a1-3)[Gal(b1-3)Gal(b1-4)GlcNAc(b1-2)Man(a1-6)]Man(b1-4)GlcNAc(b1-4)GlcNAc
Summary of the method: as §1

Gal(b1-3)GalNAc = biological target: Gal(b1-3)GalNAc
Summary of the method: as §1

[25] = biological target: Gal(b1-3)GalNAc(a1-3)[Fuc(a1-2)]Gal(b1-4)Glc
Summary of the method: as §1

[26] = biological target: Gal(b1-3)GalNAc(a1-3)[Fuc(a1-2)]Gal(b1-4)GlcNAc
Summary of the method: as §1

[27] = biological target: Gal(b1-3)GalNAc(b1-3)Gal(a1-4)Gal(b1-4)Glc
Summary of the method: as §1

[28] = biological target: Gal(b1-3)GalNAc(b1-4)Gal(b1-4)Glc
Summary of the method: as §1

[29] = biological target: Gal(b1-3)GalNAc(b1-4)[Neu5Ac(a2-3)]Gal(b1-4)Glc
Summary of the method: as §1

B1: Gal 4 (Homo sapiens), Q8K419 (protein)
chain: MAYVPAPGYQPTYNPTLPYKRPIPGGLSVGMSVYIQGMAKENMRRFHVNFAVGQDDGADVAFHFNPRFDGWDKVVFNTMQSGQWGKEEKKKSMPFQKGKHFELVFMVMPEHYKVVVNGNSFYEYGHRLPVQMVTHLQVDGDLELQSINFLGGQPAAAPYPGAMTIPAYPAGSPGYNPPQMNTLPVMTGPPVFNPRVPYVGALQGGLTVRRTIIIKGYVLPTARNFVINFKVGSSGDIALHLNPRIGDSVVRNSFMNGSWGAEERKVAYNPFGPGQFFDLSIRCGMDRFKVFANGQHLFDFSHRFQAFQMVDTLEINGDITLSYVQI
glycan array binding signal (z-score) [1]: -0.202
glycan array binding signal (z-score) [2]: -0.202
glycan array binding signal (z-score) [3]: -0.199
glycan array binding signal (z-score) [4]: -0.193
glycan array binding signal (z-score) [5]: -0.192
glycan array binding signal (z-score) [6]: -0.179
glycan array binding signal (z-score) [7]: -0.199
glycan array binding signal (z-score) [8]: -0.175
glycan array binding signal (z-score) [9]: -0.197
glycan array binding signal (z-score) [10]: -0.206
glycan array binding signal (z-score) [11]: -0.199
glycan array binding signal (z-score) (Fuc(a1-4)GlcNAc): -0.201
glycan array binding signal (z-score) (Fuc(b1-3)GlcNAc): -0.195
glycan array binding signal (z-score) (Gal(a1-2)Gal): -0.202
glycan array binding signal (z-score) (Gal(a1-3)Gal): -0.204
glycan array binding signal (z-score) (Gal(a1-3)Gal(b1-3)GlcNAc): 0.184
glycan array binding signal (z-score) [12]: -0.192
glycan array binding signal (z-score) [13]: -0.071
glycan array binding signal (z-score) [14]: -0.031
glycan array binding signal (z-score) [15]: -0.192
glycan array binding signal (z-score) (Gal(a1-3)Gal(b1-4)Glc): 0.543
glycan array binding signal (z-score) (Gal(a1-3)Gal(b1-4)GlcNAc): 0.25
glycan array binding signal (z-score) [16]: -0.166
glycan array binding signal (z-score) [17]: -0.139
glycan array binding signal (z-score) [18]: -0.201
glycan array binding signal (z-score) [19]: -0.192
glycan array binding signal (z-score) (Gal(a1-3)GalNAc): -0.196
glycan array binding signal (z-score) [20]: -0.204
glycan array binding signal (z-score) [21]: -0.201
glycan array binding signal (z-score) (Gal(a1-4)Gal(b1-4)Glc): -0.194
glycan array binding signal (z-score) (Gal(a1-4)Gal(b1-4)GlcNAc): -0.198
glycan array binding signal (z-score) [22]: -0.194
glycan array binding signal (z-score) [23]: 0.525
glycan array binding signal (z-score) (Gal(a1-4)GlcNAc): -0.202
glycan array binding signal (z-score) (Gal(a1-6)Glc): -0.202
glycan array binding signal (z-score) (Gal(b1-2)Gal): -0.201
glycan array binding signal (z-score) (Gal(b1-3)Gal): 0.459
glycan array binding signal (z-score) (Gal(b1-3)Gal(b1-4)GlcNAc): 0.41
glycan array binding signal (z-score) [24]: -0.037
glycan array binding signal (z-score) (Gal(b1-3)GalNAc): -0.028
glycan array binding signal (z-score) [25]: 13.2
glycan array binding signal (z-score) [26]: 2.3
glycan array binding signal (z-score) [27]: -0.053
glycan array binding signal (z-score) [28]: 0.027
glycan array binding signal (z-score) [29]: -0.032
